Here are results for 42 sequences from publication PMC7819943, “Rice protein-binding microarrays: a tool to detect cis-acting elements near promoter regions in rice”.

This is one part of the list.

In this assay the target is T1, OsWOX13 (Oryza sativa, UniProt Q5QMM3 1-267).
T1 sequence: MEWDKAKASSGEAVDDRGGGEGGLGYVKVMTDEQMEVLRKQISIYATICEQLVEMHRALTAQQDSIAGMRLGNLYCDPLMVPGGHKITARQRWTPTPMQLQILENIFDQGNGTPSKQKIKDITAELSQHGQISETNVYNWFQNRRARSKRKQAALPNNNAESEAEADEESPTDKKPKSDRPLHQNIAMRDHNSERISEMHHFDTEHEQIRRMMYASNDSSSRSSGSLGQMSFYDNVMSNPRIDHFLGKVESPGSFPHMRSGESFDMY
Briefly: protein-binding microarray (RPBM); PBS, 2% BSA, 51.3 ng/ul salmon testes DNA, 50 uM zinc acetate, 200 nM TF, 25 C, 1 h; high values mean tight binding. Particulars: protein: recombinant; tags: N-terminal polyhistidine and DsRed monomer fusion (pET32a); label: CyDye5-dUTP incorporated in the synthesized complementary strand; 3' TTTTT single-stranded linker to array surface; dsDNA, one strand shown. An outline of the steps:
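The binding signal for each feature is its fluorescence intensity in arbitrary units. An Axon 4000B scanner was used to read a custom Agilent array that had been made double-stranded with Cy5-dUTP primer extension, blocked with 2% BSA, incubated at 25 °C for 1 h with 200 nM protein in PBS, 2% BSA, salmon testes DNA and 50 µM zinc acetate, and washed. The protein was an N-terminal polyhistidine–DsRed transcription factor fusion from E. coli BL21-CodonPlus, purified on Ni–NTA.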
“ATCCTAATCACAAAATGTGAACATTTATAACTCAAATATACGGAGTCACCTAGTGCAG”: the binding signal is 5830 fluorescence intensity (a.u.).
As for “AACGCATGATTGACGAGTATTGTTTTACTGTAAACTTAAACGGAGTCACCTAGTGCAG”, the figure is 26700 fluorescence intensity (a.u.).
As for “ATATTGATGTTAATGAATCTAAATAGATATATATGTCTAGCGGAGTCACCTAGTGCAG”, the figure is 5520 fluorescence intensity (a.u.); as for “ATTTGATTGACCCAGTTGGAGCAATGAGCCAATGACACTCCGGAGTCACCTAGTGCAG”, 17300 fluorescence intensity (a.u.); as for “CGCGATTAACTAATGCACGTATCAACCGCCGCTAATACGTCGGAGTCACCTAGTGCAG”, 5060 fluorescence intensity (a.u.).
In the case of “TTACATTACAGCATTGATTGAACTTTCTAAAACCTAAATCCGGAGTCACCTAGTGCAG”, the binding signal is 32300 fluorescence intensity (a.u.).
“CATAATCATGTTAGATCATGACGCTAATGATGTTGGCGCCCGGAGTCACCTAGTGCAG”: the binding signal is 6880 fluorescence intensity (a.u.).
As for “TTTGATTTGGCTCGGAGAAAATTAAGGAGAATGGCAATGTCGGAGTCACCTAGTGCAG”, the figure is 28500 fluorescence intensity (a.u.); as for “TATATCTATTCATTGATAGAGTAAATGGAACATATTCCCTCGGAGTCACCTAGTGCAG”, 4880 fluorescence intensity (a.u.).
As for “TAATTAATCCATAATTAGCATATGTGATGCTACAGTAAACCGGAGTCACCTAGTGCAG”, the figure is 11700 fluorescence intensity (a.u.).
As for “AATTTCTGTCTGATTGTCATGGTGACTGTCAAATGCAACCCGGAGTCACCTAGTGCAG”, the figure is 16400 fluorescence intensity (a.u.); as for “CCTAATTTTAGCAGCAGCAAAGCTCGGATTCCCCTCCCATCGGAGTCACCTAGTGCAG”, 12100 fluorescence intensity (a.u.); as for “AACTCAATCAGAAACGACACCCACAAGACTAATACACAATCGGAGTCACCTAGTGCAG”, 4540 fluorescence intensity (a.u.).
For “TCTGATAACAAATTAAACCTGCAGGATCAATGAATTAACCCGGAGTCACCTAGTGCAG”, the binding signal was 6950 fluorescence intensity (a.u.).
Regarding “TAAAACCGTGTGATTATCAGGTTATCACATGCAGTAATCTCGGAGTCACCTAGTGCAG”, the binding signal is 6880 fluorescence intensity (a.u.).
As for “GCCAGACTGCTATTTATACATTCATACTATATCACGTGAACGGAGTCACCTAGTGCAG”, the figure is 3360 fluorescence intensity (a.u.); as for “TCTCAGACCATGATAGACAGCATCAGGGAGCTGAACTGGCCGGAGTCACCTAGTGCAG”, 5350 fluorescence intensity (a.u.).
As for “TGTAACAGAATTTAGAGGAGAACATGGCCGAATAATTTTGCGGAGTCACCTAGTGCAG”, the figure is 5120 fluorescence intensity (a.u.).
As for “TAGGGAGCAAATTAACATCGATCACTATATTCATTGATGGCGGAGTCACCTAGTGCAG”, the figure is 3470 fluorescence intensity (a.u.).
“CATCACCTCAATCAACATCAACCATCCCACCCTCTCAACCCGGAGTCACCTAGTGCAG”: the binding signal was 6510 fluorescence intensity (a.u.).
With “TTAAATTTCGAGTTGAAAATTTTCAAATTGAGTTTTGAAACGGAGTCACCTAGTGCAG”, the binding signal was 3500 fluorescence intensity (a.u.).
As for “CCAGATATATAATTAACCACCCCGTCTCTTTCACGACCCACGGAGTCACCTAGTGCAG”, the figure is 9400 fluorescence intensity (a.u.); as for “GATTTATTTAATTATGACCATTCGCTAATCCGGCCAAGACCGGAGTCACCTAGTGCAG”, 7990 fluorescence intensity (a.u.).
As for “GTGATTGATATCAATGTAGTACTAGCATGCAAAGCACGAACGGAGTCACCTAGTGCAG”, the figure is 41300 fluorescence intensity (a.u.).
For the sequence “CACAAATTATAGTACATCGGGCATGCATCCTTCTTGGGTGCGGAGTCACCTAGTGCAG”, the binding signal is 11200 fluorescence intensity (a.u.).
As for “TTTGGTAATCTAAAAGTTTATTTTAAAATTTCTTTGTCAACGGAGTCACCTAGTGCAG”, the figure is 3470 fluorescence intensity (a.u.); as for “TTAAGCCTAATTAATCCGTCATTAGCAAATGTTTACTGTACGGAGTCACCTAGTGCAG”, 8840 fluorescence intensity (a.u.).
As for “TCGATTATACCAATTTACCATGACTTGTTACTACCAGTAGCGGAGTCACCTAGTGCAG”, the figure is 4070 fluorescence intensity (a.u.).
As for “GTGTAAAATGGAACTAATCATTAACGTATGATTAATTATGCGGAGTCACCTAGTGCAG”, the figure is 24100 fluorescence intensity (a.u.); as for “GGATTAATAGAGAGTCTGTTAGAGTAAGCATCTAGTTTGACGGAGTCACCTAGTGCAG”, 3220 fluorescence intensity (a.u.).
Consider “ATTTGATGCAAATTGGCTATAAGCAAAGTTCAGAAAACGGCGGAGTCACCTAGTGCAG”, for which the binding signal is 12000 fluorescence intensity (a.u.).
As for “GGGCCGGGAGGGTGCCTGATTGATTCGATTCAGGATTGGCCGGAGTCACCTAGTGCAG”, the figure is 17400 fluorescence intensity (a.u.); as for “CTGCCGAAATTGCATGTATTAATCATCACCTCTACTAGCTCGGAGTCACCTAGTGCAG”, 6950 ± 271 fluorescence intensity (a.u.); as for “CCCATTGACAATATTTGTTTCGGTCCCGTACTTATAGGCCCGGAGTCACCTAGTGCAG”, 4840 fluorescence intensity (a.u.).
As for “TTACTAATTTGGCTTTTCCTGGTTAAATAATATCTGACGTCGGAGTCACCTAGTGCAG”, the figure is 15000 fluorescence intensity (a.u.); as for “ATTTTGATTTGTGGGCTGATGGTAGATAAGAAACTCCAAACGGAGTCACCTAGTGCAG”, 27000 fluorescence intensity (a.u.); as for “CCAGAATTGTTTACTTCAATTTACCCAAATTTAGGCCCATCGGAGTCACCTAGTGCAG”, 7240 fluorescence intensity (a.u.).
“TCAGTAAACAAAATAAATAAATAAATGGCAACCCAAGTTGCGGAGTCACCTAGTGCAG”: the binding signal is 3630 fluorescence intensity (a.u.).
Take “ACAGATTGAAGGAGTTATCAATATAATGTTTTCAATAATGCGGAGTCACCTAGTGCAG”: the binding signal was 24300 fluorescence intensity (a.u.).
As for “ATGTGATGGAAAAGATGGAAGTTTATGTATATAGGAAAATCGGAGTCACCTAGTGCAG”, the figure is 4940 fluorescence intensity (a.u.); as for “ATGGTTTAATTAGGCTCAAAAGATCCATCTCGTGATTTCCCGGAGTCACCTAGTGCAG”, 4660 fluorescence intensity (a.u.).
As for “AACTGATAATCTGACAGCCATTGATCGATCAACTATAAATCGGAGTCACCTAGTGCAG”, the figure is 4290 fluorescence intensity (a.u.).
